Test results published in the supplement of paper PMC12217912.
The other results are listed elsewhere or left out. Sequences were assembled here from the parent chain. Values near 0.05 are background.

B1: TEV protease; numbered along this chain (parent)
chain: MGESLFKGPRDYNPISSSICHLTNESDGHTTSLYGIGFGPFIITNKHLFRRNNGTLVVQSLHGVFKVKDTTTLQQHLVDGRDMIIIRMPKDFPPFPQKLKFREPQREERICLVTTNFQTKSMSSMVSDTSCTFPSGDGIFWKHWIQTKDGQCGSPLVSTRDGFIVGIHSASNFTNTNNYFTSVPKNFMELLTNQEAQQWVSGWRLNADSVLWGGHKVFMVKPEEPFQPVKEATQL

Variants of: B1
Test: raw area under fraction-flipped curve 0-4 h after induction (AUC4h, not background-subtracted), DNA-recorder readout of cleavage of the substrate (dimensionless); higher = more cleavage of the substrate by the protease variant
Settings: temperature: 34 °C; time window: 0-4 h after rhamnose induction
Description: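 In vivo DNA recorder in E. coli TOP10(DE3) ΔrhaA at 34 °C. Each TEVp single-site mutant (parent TEVp 0) is paired with a single-site variant of the 7-mer TEVs (canonical ENLYFQ|S). The substrate sits between flexible linkers in a Bxb1-sfGFP-TEVs-SsrA fusion, so cleavage stabilises Bxb1 and speeds flipping of a recombination array, read by NGS. The value is the raw area under the fraction-flipped curve over 0-4 h after rhamnose induction (AUC4h), with ≥20 reads per time point. It is not background-subtracted; inactive controls average about 0.047.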
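Also: Bxb1 expression induced with 0.2% (w/v) L-rhamnose at OD600 near 0.5, cultures sampled hourly, flipped fraction per protease–substrate barcode pair counted by paired-end Illumina sequencing.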

Row | Variant | area with substrate ANLYFQS | area with substrate CNLYFQS | area with substrate DNLYFQS | area with substrate FNLYFQS | area with substrate GNLYFQS | area with substrate HNLYFQS | area with substrate INLYFQS | area with substrate MNLYFQS | area with substrate NNLYFQS | area with substrate PNLYFQS | area with substrate SNLYFQS | area with substrate TNLYFQS | area with substrate WNLYFQS | area with substrate LNLYFQS | area with substrate QNLYFQS | area with substrate RNLYFQS | area with substrate VNLYFQS | area with substrate YNLYFQS | area with substrate KNLYFQS
1 | R204K | 0.0521 | 0.0719 | 0.0917 | 0.0735 | 0.0732 | 0.0687 | 0.0692 | 0.0926 | 0.0709 | 0.0786 | 0.0674 | 0.0886 | 0.0669 |  |  |  |  |  | 
2 | Q198K | 0.0634 | 0.0355 | 0.092 | 0.0514 | 0.0784 | 0.0835 | 0.0782 | 0.0848 | 0.0817 |  |  | 0.0612 | 0.0657 | 0.0379 | 0.078 | 0.0839 | 0.0701 | 0.0687 | 
3 | S16V |  | 0.0675 |  |  | 0.0777 | 0.0468 | 0.0649 | 0.062 | 0.0758 | 0.0554 |  | 0.0627 | 0.0601 | 0.0553 |  |  |  | 0.0701 | 
4 | S16Q |  | 0.0765 | 0.0849 |  | 0.0641 | 0.0466 | 0.0622 | 0.0662 | 0.0647 | 0.0639 | 0.0656 | 0.0623 | 0.0612 | 0.0632 | 0.0603 |  | 0.0583 | 0.0662 | 0.0661
5 | S16A |  | 0.0463 | 0.0684 | 0.0746 |  | 0.0624 | 0.0655 |  |  | 0.0746 | 0.0707 | 0.0576 | 0.0648 | 0.0676 | 0.0831 |  |  | 0.0803 | 0.0678
6 | S16D |  | 0.0866 |  | 0.0626 | 0.0694 | 0.0549 | 0.0609 |  | 0.0532 | 0.0595 | 0.0718 | 0.0651 | 0.0417 |  | 0.0544 |  |  | 0.0499 | 0.068
7 | S16N |  | 0.0612 | 0.0767 | 0.0564 | 0.0607 | 0.0727 | 0.0709 |  | 0.0702 |  | 0.0648 | 0.0468 | 0.0589 | 0.0593 | 0.0523 |  | 0.0613 | 0.0633 | 0.0602
8 | S16E |  | 0.0767 |  |  | 0.0606 | 0.0604 | 0.0616 | 0.068 | 0.0681 | 0.0745 |  | 0.0572 | 0.0612 |  | 0.0668 |  | 0.0696 | 0.0675 | 0.0728
9 | S16G |  | 0.0689 |  |  | 0.0851 | 0.065 | 0.0734 | 0.0777 |  | 0.0727 | 0.0663 | 0.11 | 0.0621 | 0.0719 |  |  |  | 0.0603 | 0.0622
10 | A232N | 0.0469 | 0.0949 | 0.0789 | 0.0557 |  |  |  |  |  | 0.065 | 0.0656 |  | 0.0615 | 0.0721 | 0.063 |  | 0.0734 | 0.0519 | 
11 | A232S | 0.0543 | 0.0751 |  |  |  | 0.066 |  | 0.0649 | 0.055 |  |  |  | 0.0543 | 0.0707 | 0.0846 |  |  |  | 0.0789
12 | W203A | 0.0402 | 0.0651 | 0.0661 | 0.0594 |  | 0.0396 | 0.0603 |  | 0.053 |  | 0.0585 | 0.0615 | 0.0614 | 0.0742 |  |  | 0.0342 | 0.056 | 0.0453
13 | unchanged | 0.0664 | 0.0707 | 0.0807 | 0.0613 | 0.0678 | 0.0642 | 0.0647 | 0.0654 | 0.066 | 0.0683 | 0.0667 | 0.0672 | 0.0612 | 0.0648 | 0.0672 | 0.0636 | 0.0655 | 0.0626 | 0.0682
14 | V200H | 0.0626 | 0.0476 | 0.0726 |  | 0.054 | 0.0608 | 0.0536 | 0.0538 | 0.046 | 0.0607 | 0.0572 | 0.0585 | 0.0511 | 0.0634 | 0.0587 |  | 0.0656 | 0.0645 | 0.0619
15 | F226C | 0.0669 | 0.0904 | 0.0959 | 0.0527 |  | 0.0688 |  |  |  | 0.119 | 0.052 | 0.0665 | 0.0467 | 0.0675 |  |  |  | 0.0698 | 0.0697
16 | H168F | 0.0573 | 0.0677 |  | 0.0585 |  |  | 0.0697 |  |  | 0.0649 | 0.0558 | 0.0502 | 0.0531 |  |  |  | 0.0767 | 0.0622 | 
17 | H168E | 0.0533 | 0.0683 | 0.0584 |  |  |  | 0.0577 | 0.063 |  | 0.0505 | 0.055 | 0.0622 | 0.0539 | 0.0551 |  |  | 0.0504 |  | 0.0665
18 | H168I | 0.057 | 0.053 | 0.0664 |  | 0.0666 | 0.0559 | 0.0529 | 0.0485 | 0.0543 | 0.0482 | 0.0665 | 0.0537 | 0.0522 | 0.0618 | 0.0548 | 0.106 |  | 0.0485 | 0.0468
19 | H168L | 0.0739 | 0.0612 |  | 0.0636 |  | 0.0632 | 0.0629 |  | 0.0593 | 0.0774 | 0.057 | 0.0502 | 0.0591 | 0.0462 |  |  |  | 0.0593 | 0.066
20 | N175K | 0.0727 | 0.0734 | 0.0767 | 0.0564 | 0.0873 |  | 0.0657 | 0.0606 | 0.0652 | 0.0554 | 0.0661 |  | 0.0537 | 0.0674 | 0.0949 | 0.0613 | 0.075 | 0.062 | 0.0695
21 | K216F | 0.0321 | 0.068 |  | 0.0379 |  | 0.0537 |  |  |  | 0.052 |  | 0.062 | 0.04 |  |  |  |  | 0.0489 | 0.0601
22 | K216I | 0.08 | 0.0828 |  |  | 0.0791 |  | 0.0512 |  |  |  |  |  |  |  |  |  |  |  | 0.0669
23 | T176D | 0.0615 | 0.0598 | 0.0586 |  |  | 0.0628 | 0.0618 | 0.0586 |  |  | 0.0547 |  |  |  |  |  |  |  | 0.0665
24 | T176F | 0.062 | 0.0343 |  |  |  | 0.061 |  | 0.0351 |  | 0.0668 | 0.0729 | 0.0491 | 0.0578 | 0.0604 | 0.0644 |  |  |  | 0.113
25 | T176I | 0.0493 | 0.0613 | 0.0747 | 0.0655 | 0.0779 | 0.0762 | 0.0697 | 0.0621 | 0.0643 | 0.0663 |  | 0.0685 | 0.0586 | 0.0618 | 0.0571 | 0.0649 | 0.0653 | 0.0578 | 0.0618
26 | N177E | 0.0393 | 0.0841 | 0.0868 | 0.0907 | 0.0813 | 0.0812 | 0.0882 | 0.0867 | 0.0881 | 0.0922 | 0.0808 | 0.0837 | 0.0631 | 0.088 |  |  |  | 0.0421 | 0.116
